# Measurements published in the RNAGym collection of RNA variant scans (doi:10.1073/pnas.2313332121).
# Variants at the floor of the assay are shown more often than the library holds them.
# B1: TPR 5TU (parent)
# chain: GGAUCUUCUCGAUCUAACAAAAAAGACAAAUCUGCCACAAAGCUUGAGAGCAUCUUCGGAUGCAGAGGCGGCAGCCUUCGGUGGCGCGAUAGCGCCAACGUUCUCAACUAUGACACGCAAAACGCGUGCUCCGUUGAAUGGAGUUUAUCAUG
# Variants of: B1
# Experiment: polymerase ribozyme fitness, log enrichment relative to wild type (log ratio); higher = more active; in vitro selection for triplet polymerase activity
# Summary of the method: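 Each subunit of a heterodimeric triplet polymerase ribozyme was mutagenized into a library by PCR, transcribed, and subjected to one round of in vitro selection, run in triplicate. Libraries were annealed with a biotinylated primer, the partner subunit and triplets, incubated frozen at −7 °C, and extended constructs were gel-excised, captured on streptavidin beads and recovered by RT-PCR. Input and output libraries were sequenced on Illumina, keeping genotypes with ≥10 input reads and ≥1 read per output. Fitness is log base 2 of genotype enrichment divided by wild-type enrichment, from inverse-variance-weighted replicate averages.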
row,Variant,polymerase ribozyme fitness (log ratio)
1,A37G G48A C93U A97U A98U G100U A107G U135C G143A,≤ -4.2
2,A37C G58A G68U C99U A106C A142G A147C,≤ -4.2
3,A37G C85A C116A C118G U139A U144G,≤ -4.2
4,A37C C96U G100C U102C C118G C131G,≤ -4.2
5,C38A A47U U53A G86U C99G U102G U104C G124U,≤ -4.2
6,A37G C93U A107G,≤ -4.2
7,A37U A52U C57U G74A C76U C93U C95U U109G,≤ -4.2
8,A37G U55A A66G C75U C85A A122U,≤ -4.2
9,A37U G42C G50C C57A A73G C132G G141C,≤ -4.2
10,A37G G50C G74U C105G A122U,≤ -4.2
11,A37G C99A U146A,≤ -4.2
12,A37U,-1.11
13,A37G,-1.24
14,A37C U53A A91C,≤ -4.2
15,A37G G59A C118G A142C,≤ -4.2
16,A37C U53A C54U G128A G136A,≤ -4.2
17,A37C G42C G59C A73U G74C G88A A137C,≤ -4.2
18,A37G C93A A142G,≤ -4.2
19,A37U G50A U53A G83U C85A G92U C105A G117A U139A C149U,≤ -4.2
20,A37C C105U,-0.652
21,A37G G42C C76U G84C,≤ -4.2
22,A37U C114U A115G A120U,-3.83
23,A37G C76A G94U U109G,≤ -4.2
24,A37U G100C A120U,≤ -4.2

row,Variant,polymerase ribozyme fitness (log ratio)
1,A37G C85A U145C U151G,≤ -4.2
2,A37C U44A G70A C79G U134G U135A U151C,≤ -4.2
3,A37U G59C C149G,≤ -4.2
4,A37C U56A A89C C116G A150C,≤ -4.2
5,C38A A39C G42A G88C C95A C116A A120C C129U,≤ -4.2
6,A37G G59A C79A C95A A107U,≤ -4.2
7,A37U G81U U82C A89G C93G A97U,≤ -4.2
8,A37G A52G G84U G86U,≤ -4.2
9,A37U U55A A91G A98U U148A,≤ -4.2
10,A37C G86U C87U C108U A113G G117A,≤ -4.2
11,A37U U77G C96A A106G,≤ -4.2
12,A37U G46U C85U G86A G92A,≤ -4.2
13,A37C G58A C87A U101G G124C A150U,≤ -4.2
14,C38A A64G G128U A142C,≤ -4.2
15,A37U C75U G83A A98U,-2.88
16,A37U G50U C79A G133A,≤ -4.2
17,A37C U61A G80C A107C U146C,≤ -4.2
18,A37C G80A G86A,-2.42
19,A37U G94A U104G,-2.92
20,A37C U45A A106G A147G,≤ -4.2
21,A37C U55A G88C G94A U139G G141A G143C,≤ -4.2
22,A37G U102G C103A G128U,≤ -4.2
23,A37G G48C A52C U56A C79A U104A U109A C116G C149G G152A,≤ -4.2
24,A37U C54U A138C,≤ -4.2

row,Variant,polymerase ribozyme fitness (log ratio)
1,A37C G83A A122U C131U U134C,0.318
2,A37C U78G,≤ -4.2
3,A37G C75G U90G G94C A97U C99G C103U A121U U148A,≤ -4.2
4,A37U G42A G67A C93A A122U,≤ -4.2
5,A37C C123U C125A A142U U148A,≤ -4.2
6,A37U G83A C85A C87A A98U A106G,≤ -4.2
7,A37G C69U U77C U144G C149A,≤ -4.2
8,A37U G42C,-3.9
9,A37G C87U G94C,≤ -4.2
10,A37G U55G G59A A73G G88A A150G,≤ -4.2
11,A37G G124A,-2.19
12,A37U A98G,-1.34
13,A37G G81A G136U A142U,≤ -4.2
14,A37U G48A G94U A106C A115G U139G,≤ -4.2
15,A37U G42U C96G U144C,≤ -4.2
16,C38A A39U G68A U77C U104A A119G G140U,≤ -4.2
17,A37G U45C C54G A60G U90C C95A G117A U146C U148A,≤ -4.2
18,A37C G48C C72U G92C,≤ -4.2
19,A37G U53A A66U U101G A115C C116U,≤ -4.2
20,A37U A73G G80C G88C A98U C103G,≤ -4.2
21,A37C C95U G100U C108U A138G,≤ -4.2
22,A37G U53C C79G C96U A107C G133A,≤ -4.2
23,A37U U82G C87A,≤ -4.2
24,A37U A60G G71U U78A C93A U104G A122C,≤ -4.2

row,Variant,polymerase ribozyme fitness (log ratio)
1,A37G U55A C57G A73U C87U G133U U146G,≤ -4.2
2,A37U C96G C114U C118A,≤ -4.2
3,C38A,-0.151
4,A37G C57U A121C G140C,≤ -4.2
5,A37C G68C C96A G126A,≤ -4.2
6,A37U A106U U151G,≤ -4.2
7,A37C U61A U90C A91U,≤ -4.2
8,A37U C72A C95U,≤ -4.2
9,A37U A60U C76G U102G A115U A150U,≤ -4.2
10,A37U A47G C75A G86U C95G C132U G133U G152U,≤ -4.2
11,A37G A41C U53C C85U U104C G128C C149G,≤ -4.2
12,A37C G42U G80C C85U,≤ -4.2
13,A37C G92U A97G U111C,≤ -4.2
14,A37G C93U,-3.38
15,A37C C103G,-3.6
16,A37U U61A C85U U134A,-3.78
17,A37C G84U C95G C114A C118G U139G G143C,≤ -4.2
18,A37G C43U G74C U144A,≤ -4.2
19,A37U C54G C96U U104G,≤ -4.2
20,A37G C69G,-0.726
21,A37G U45G C54A A91G C96U G141U,≤ -4.2
22,A37G A60G U77G C105A,≤ -4.2
23,A37C G70C C87A C125U,≤ -4.2
24,A37U G50C U78C A98U U134C,≤ -4.2

row,Variant,polymerase ribozyme fitness (log ratio)
1,A37C G46A G83A A142U,≤ -4.2
2,A37C U45A C79U A97U U144A,≤ -4.2
3,A37G C51A A97U,≤ -4.2
4,A37G U61A G141C U148C,≤ -4.2
5,C38A A47C C96A,-1.63
6,A37G G59A C69U C79G G94A A97U G112U C118A,≤ -4.2
7,A37U G86U,-3.44
8,A37G C87U,-2.16
9,A37U G58U C95G A97G U127G C131A G141U,≤ -4.2
10,A37C C95U C103G C118G,≤ -4.2
11,C38A A49U U61A C63A G65C G74C C75A G92A C99U A137U,≤ -4.2
12,A37G A73U G94A A97C G124A,≤ -4.2
13,A37U G84A C87U G94A A110U A113C A115C,≤ -4.2
14,A37G C57A A64C A73G C93U C125A,≤ -4.2
15,A37C G92C G124C,-2.65
16,C38A A66G G70A,≤ -4.2
17,A37U A40C G42C G81A A98C,≤ -4.2
18,A37U C116U G128U G141A,≤ -4.2
19,A37G U61G C93U A115C,-4.18
20,C38A A60U G84A U134C,-1.6
21,A37U G84A C103A C118G U139A,≤ -4.2
22,A37C U53G U56G C118A U135A G141A,≤ -4.2
23,A37U A40C G68C G86U C95U G136A A137C,≤ -4.2
24,A37G A60G G71A C79G G81U C95G C125A G141C U145A U148G,≤ -4.2

row,Variant,polymerase ribozyme fitness (log ratio)
1,A37C G42C U82G C85U A115C C123G A150C,≤ -4.2
2,A37G A49U A73G,≤ -4.2
3,A37C G50U A52C U90C G94C C116U,≤ -4.2
4,A37C G50A A66G C95G U127A,≤ -4.2
5,C38A A52C G68A G86A A142U,≤ -4.2
6,A37G A64C U77C C85U G128U G136U G141C,≤ -4.2
7,A37G C93U C116G,-2.65
8,A37U A47C C79G A91U C105G U135C U139C,≤ -4.2
9,A37C G58A C75A C99U,≤ -4.2
10,A37G U61C G94U U145C,≤ -4.2
11,A37G U44G C72U C93G A97G A98C G141U,≤ -4.2
12,A37G G42C G46A U56A A66G A89C,≤ -4.2
13,C38A A49C U55A U56A A73U U82G C87A G117A G141U,≤ -4.2
14,A37U A60U C75U C96A U111A,≤ -4.2
15,A37U A52C G94A A98U U109C G128A G133A,≤ -4.2
16,A37C G83U,-0.441
17,A37U A73G,-1.1
18,A37G U145G,-2.35
19,A37C G84A C87G U148G,≤ -4.2
20,A37G C85U G88C C95U,≤ -4.2
21,A37C U55A G133C U144A,-2.6
22,A37U A89C C96U C103G U111A U148C,≤ -4.2
23,A37U A89U U146A,-1.62
24,C38A A49C A60U C79U A120U C131U G152A,≤ -4.2

row,Variant,polymerase ribozyme fitness (log ratio)
1,A37G C57U C85G G92C,≤ -4.2
2,A37G A49C U55A G71C G141C A147C,≤ -4.2
3,A37U G92C G133C,-3.52
4,A37G A41G C79A G92U C95U C123U,≤ -4.2
5,A37G G50A U55C A91G G124A U151G,≤ -4.2
6,A37G C63U G68U U77C U82A A89C C125A,≤ -4.2
7,A37C U61A G68U C96U A98G,≤ -4.2
8,A37C G67A C93A C118U A122U G141A,≤ -4.2
9,A37C U55G U56G G88A C108G U109C,≤ -4.2
10,A37U C125G U139C,≤ -4.2
11,A37U U55A G58C A142U,-2.45
12,A37U U61A C79A U148G,≤ -4.2
13,A37G G71U U78A C95U C99U G141U,≤ -4.2
14,A37G A41U A60C U111G,≤ -4.2
15,C38A A52C C54U C96U C125U G140A,≤ -4.2
16,A37U A49C U78A C79G,≤ -4.2
17,A37C U55A,0.0873
18,C38A A49U U146G U148A,≤ -4.2
19,A37C G94U A98U,-1.16
20,A37C G70A C76A G84C,≤ -4.2
21,A37U A52U G88A G92A G126A,≤ -4.2
22,A37U A40C G70A C76G C85U,≤ -4.2
23,A37G C51U,-2.54
